Data from the BET-seq Pho4 binding data (Le et al. 2018).
This is one part of the list. Values were computed here from the reads of four pooled replicates and scatter widely.

biological target: T1, Pho4 (S. cerevisiae) (UniProt P07270); experiment: relative binding free energy (BET-seq); higher = weaker binding; details: reference: library average
T1 sequence: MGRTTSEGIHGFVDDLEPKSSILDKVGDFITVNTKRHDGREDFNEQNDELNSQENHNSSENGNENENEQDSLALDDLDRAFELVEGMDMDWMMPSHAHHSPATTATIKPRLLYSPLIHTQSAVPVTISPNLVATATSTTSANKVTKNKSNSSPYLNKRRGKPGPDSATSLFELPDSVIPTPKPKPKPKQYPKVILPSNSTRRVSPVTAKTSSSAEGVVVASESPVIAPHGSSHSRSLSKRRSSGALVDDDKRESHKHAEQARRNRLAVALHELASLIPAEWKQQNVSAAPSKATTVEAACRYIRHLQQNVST

Sequence | relative binding free energy [kcal/mol]
TTATTCACGTGAATAG | 0.2
CAATGCACGTGGTCGG | -0.04
GTAAGCACGTGGCGGG | -0.17
GTTAACACGTGGGTTA | -0.16
TGAGGCACGTGGGGGG | -0.22
TGCTTCACGTGCGTGT | 0.05
TGATTCACGTGCCGGG | 0.26
CTACTCACGTGGGGGT | -0.04
GATCTCACGTGGGCTT | 0.3
TTCCGCACGTGCGGTT | 0.11
GAGATCACGTGTTTGT | 0.09
CTATACACGTGGGAGG | -0.08
ATGGACACGTGTAGTT | 0.09
TAGTGCACGTGTAGGA | -0.03
TTTTGCACGTGGTAAA | -0.09
AGTCTCACGTGAAGGT | 0.36
TGACTCACGTGTTTGA | 0.19
GGTGTCACGTGCATTG | 0.05
GGGCACACGTGGGGAG | -0.05
GTTTGCACGTGAAAGG | 0.23
AGGATCACGTGTAATT | 0.12
TTGCTCACGTGGCGTA | 0.24
TTTTGCACGTGCTGGT | 0.07

Sequence | relative binding free energy [kcal/mol]
TGGGACACGTGTCTAT | 0.03
TAGATCACGTGCTTGT | 0.02
TGAGGCACGTGGTCAG | -0.19
GGGGTCACGTGTGATG | 0.33
AAGGACACGTGTTCGT | 0.09
TTGCTCACGTGCTTTG | 0.07
TCTATCACGTGGAGGG | 0.11
GTTTGCACGTGTTTGT | 0.09
AAGTTCACGTGGTGTG | 0.16
TATGACACGTGAACGG | 0.4
GAATGCACGTGGGGGA | -0.01
ACGGTCACGTGTTGGG | 0.1
TGGAGCACGTGTGCGG | -0.06
AGGGCCACGTGTTAAG | 0
TTTACCACGTGTGTTT | 0
ATAAGCACGTGATGAT | 0.06
GTCGACACGTGGGAAT | 0.18
TTTTTCACGTGGGCGA | 0.08
AGTTTCACGTGTCTTT | 0.46
TGTGCCACGTGTTAGT | -0.01
GTGAGCACGTGGCGTT | -0.17
CGCGTCACGTGTGGTT | 0.08
GGATGCACGTGGAGAT | 0.01

Sequence | relative binding free energy [kcal/mol]
ATTTTCACGTGTTCTA | 0.11
GGGTTCACGTGTGAGC | 0.49
GCTTACACGTGAGGGT | 0.44
TATTTCACGTGTTTTC | 0.27
GGTACCACGTGGTTGT | -0.12
TTTAGCACGTGTATTA | -0.13
TTATACACGTGGAGTT | 0.02
CGTCGCACGTGGAAGG | -0.03
AGGATCACGTGAGGTC | 0.27
AAGGTCACGTGGAGGA | 0.07
GATGGCACGTGGAGCG | 0.02
TGTCGCACGTGAGTTG | 0.09
TGTTACACGTGGATGG | 0.12
TGATACACGTGTGTTT | 0.07
GTGGACACGTGAGATT | 0.34
TGTGTCACGTGGCGCG | -0.02
GGGTTCACGTGAACTG | 0.41
ATGGGCACGTGTGGAC | -0.07
GAGGTCACGTGGTGTC | 0.14
TGAGCCACGTGGGCTG | -0.17
GTGGTCACGTGTCTGT | 0.21
TTTTGCACGTGAGAGG | 0.26
ATGGACACGTGTGGCG | 0.16

Sequence | relative binding free energy [kcal/mol]
GTGGACACGTGATGTG | 0.31
GTGATCACGTGTATCG | 0.23
GGGCTCACGTGGGCGA | 0.27
GTGTACACGTGCTTTG | -0.08
ACAGACACGTGGGTGT | -0.22
GGATGCACGTGTTATA | -0.03
TATTTCACGTGGGTAC | 0.3
TAGGGCACGTGGACCT | -0.03
TAGTTCACGTGGTGAC | 0.15
GGCGTCACGTGCAGTG | 0.03
GTCTGCACGTGTAGCG | 0.12
GGCTGCACGTGTAGTG | 0.18
TCGTGCACGTGACGGT | -0.06
TTAGACACGTGCTAGG | -0.05
GGTGTCACGTGGCGAA | 0.03
GTGTTCACGTGATAGC | 0.49
TGGGTCACGTGGTTGC | 0.15
GGTGTCACGTGTGAGT | 0.18
TAATTCACGTGGTTAA | 0.12
CATTGCACGTGAGTAT | 0.16
TGGGACACGTGTTATT | 0.03
AGTGTCACGTGCGTGC | -0.03
ATTTTCACGTGGGGGT | 0.19

Sequence | relative binding free energy [kcal/mol]
CATAGCACGTGGTGTG | -0.21
GAGGACACGTGTGGGG | 0.16
TGACGCACGTGAAGTG | 0.19
CTGGACACGTGTGTAT | 0.19
TTTAGCACGTGTGGTT | -0.03
AGTATCACGTGGTGGT | 0.02
TTTATCACGTGCCGGT | 0.14
GTGTTCACGTGAATGA | 0.43
GATTCCACGTGTTTTT | 0.08
AGTTACACGTGCCGGG | 0.02
TTGGGCACGTGTCGAA | -0.13
GGTGTCACGTGAAGCA | 0.28
TTTACCACGTGTTATT | 0
GGCGACACGTGGCGTG | -0.14
TTGTACACGTGGTTGT | 0.02
GATTTCACGTGCTATT | 0.18
TGCGCCACGTGAGGTT | 0.1
ATTTCCACGTGTGAGT | 0.1
AAGGACACGTGGTATG | -0.18
TGGGACACGTGGTATA | -0.02
TGGGTCACGTGGCCGG | -0.1
TAATTCACGTGCGTTT | 0.17
CTGAACACGTGGAGGT | -0.05
